Data: the supplement of paper PMC11417369
± gives the standard deviation of the averaged measurements. The list shows a part of the results.

test system: PfAP2-LT AP2 domain (GST-tagged); experiment: gcPBM binding intensity (ln(normalized median fluorescence intensity)); higher = stronger DNA binding
Procedure, shortened: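 Binding intensity is defined as the maximum Masliner-normalised natural-log median intensity across replicate spots for either probe orientation. It was measured on an Agilent 4 × 180k array of primer-extended double-stranded 36-bp intergenic genomic probes and negative controls, to which GST-tagged P. falciparum DNA-binding domains made in E. coli were applied for 1 h in 1× PBS with 1% milk, 0.2 mg/ml BSA, 0.5% salmon testes DNA and 0.03% Triton X-100. Detection was by Alexa488 anti-GST antibody and scanning at 488 nm.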

Sequence | gcPBM binding intensity (ln)
ATGAATATAATGAAGTGTACATAAAAATAATAAATA [XGTACX_site2481] | 8.96 ± 0.5
ATCTAGTACATACATACACACAACAATGTTATGAGA [CACACA_site3989] | 9.06 ± 0.36
CAATTTTGCCCTTCCTGTACATATATTGAAAAATAT [XGTACX_site6388] | 8.54 ± 0.49
TTAAATAATATTAGCCGTACAATTTAAAGATAATAA [XGTACX_site8503] | 8.52 ± 0.35
GAAAGGGCAGGAACTATTAATACACTGATCGATAAG [CACACA_negctrl_site1458] | 8.94 ± 0.43
AATTATAGCTGTATCTGTACGCATTTATTTATAGAC [XGTACX_site5959] | 8.9 ± 0.27
TTTAATACTTTATATGCATGCAGAGAAAAATGCTTG [TGCATGCA_site286] | 8.7 ± 0.22
AAAAAAAAGTATGATTCTAAATTTATGTATATATAA [GTGCAC_negctrl_site669] | 8.32 ± 0.46
CTTATACATAAATTTTGTACACACAAAAAAAAAAAA [XGTACX_site2665] | 8.91 ± 0.52
TAAAAATATAGGTATACACACATATAAATATAAATA [CACACA_site7785] | 9.03 ± 0.49
GATTTTAAAATAATTACACACTTGATTATGTCCAAA [CACACA_site3491] | 8.68 ± 0.4
ATAAATATAAATATATGTACATATATATATATATAT [XGTACX_site7433] | 9.6 ± 0.13
TAAATATTTATAAACACACAAATATTTATATTTATA [CACACA_site6166] | 8.53 ± 0.37
AAATAGAGAAATACAAGTACATATCAAACCAATCTA [XGTACX_site2756] | 8.99 ± 0.38
AGGGACATATATATCACACACAAAAATTAGTCCCTT [CACACA_site2778] | 9.39 ± 0.44
TTTATTTATTAATACACACACACACGCCCACAAAAT [CACACA_site6253] | 9.995 ± 0.05
AAATATTACCATGTGAAAATTTTACTGCAACATGAA [TGCATGCA_negctrl_site609] | 8.73 ± 0.45
TAAAAATTTACATGTTGTACATATAATTATATAATC [XGTACX_site4577] | 8.56 ± 0.49
AGGCTGCCATATTATACACACATTTTTAAAAAAATT [CACACA_site3843] | 8.77 ± 0.4
TAATTTTTTTTAATAACACACATATATATATATATA [CACACA_site813] | 9.23 ± 0.19
ATAAAATGAAATATATATGTGTATGCTTAACTTGTT [CACACA_negctrl_site431] | 8.8 ± 0.36
AAAGGATGTAATATAAACATATATATGTATATATAT [TGCATGCA_negctrl_site347] | 9.02 ± 0.38

Sequence | gcPBM binding intensity (ln)
ATTGTTTTATATAGAACACACATAAAAATATATATG [CACACA_site1193] | 8.78 ± 0.4
TAATATTCCTTTTTAACACACATATGAACAAATAAA [CACACA_site153] | 8.53 ± 0.38
ATATTAAACAGACACACACACATATATTTATTTATA [CACACA_site7564] | 9.71 ± 0.13
TGTATTATATAAAATTGTACATGCGAATTGTATAAC [XGTACX_site902] | 8.71 ± 0.33
AAAATGAACTCACGAGCACACACACCCATATATATA [CACACA_site8247] | 9.72 ± 0.25
TATAGCTATGTATTCACACATAATATAAACTTTAAT [CACACA_site5889] | 8.73 ± 0.41
TAAAACAAAACAAAAATAGGATTATATTCCTTTTTT [CACACA_negctrl_site1003] | 8.43 ± 0.46
ATAATTTCAATATTTAATATCATATATATATATTTT [GTGCAC_negctrl_site713] | 8.62 ± 0.48
AAATAAAAAAATACCCAACACCATGCCAAATGTGAA [CACACA_negctrl_site411] | 9.11 ± 0.38
ATATATATATATATATGTACATATGTGTATATAACT [XGTACX_site495] | 9.45 ± 0.099
ACAAAATGTAAATAAACACACATATTTATATTTATA [CACACA_site6719] | 8.94 ± 0.45
AATAAAATATTATGTGCATGCTGTTTTATTTATTAA [TGCATGCA_site102] | 8.86 ± 0.3
TTGGTGGATAAATTTACACACAATAATTTTCGTTCA [CACACA_site467] | 8.86 ± 0.38
AATTCACCAAAAAAAGTGCATATTCAATATATATTA | 8.54 ± 0.47
ATCAACATTACATTTAGTACACATATATTTCTATGT [XGTACX_site4436] | 9.26 ± 0.47
TAGTTAGGCCCTACATGTACATAATATATATTACTT [XGTACX_site1137] | 9.16 ± 0.3
CTAATTAATATTTGTACACACATATTTAACCTACTA [CACACA_site3191] | 9.1 ± 0.4
TATATAAGTATAAAATGTACATAAAATTTTATGTTA [XGTACX_site2613] | 8.67 ± 0.44
TAAAATTCGAAAAATTGTACTATTTATATATCTGTA [XGTACX_site6478] | 8.49 ± 0.49
AACTCTTAAAAATAAACATGCAAATATTTACCTTCT [TGCATGCA_site986] | 8.61 ± 0.33
TATATATTATATATATGTACATAATTCCATGTTTAG [XGTACX_site3943] | 8.71 ± 0.46
ATTTTTTTTTTTTTTTTTCATTTTTTTTTTTTTTTT [CACACA_negctrl_site1204] | 8.62 ± 0.54

Sequence | gcPBM binding intensity (ln)
ATATTAAAGCCTTTTTGTACATATAAATAAACATAG [XGTACX_site4667] | 8.57 ± 0.38
CTTGAAAGATTTTATTGTACTCATAAGATACATTTC [XGTACX_site3178] | 8.56 ± 0.42
TCATACAATATTAAATGTACATATATATATATATAT [XGTACX_site8828] | 9.6 ± 0.42
TTGAAAATAATATGAAGTACATTATTTTTTTTTAAT [XGTACX_site4499] | 8.37 ± 0.47
AAAAATATTTAAAATACACACATATATATAATATAT [CACACA_site2006] | 8.89 ± 0.42
AAAACTTTCCATGTTTGTACATAAAATATAATAATT [XGTACX_site2716] | 8.49 ± 0.42
TTTTTTTTCTTTTTTTTTTTTTCAAAAGCTTATAAT [CACACA_negctrl_site1526] | 8.15 ± 0.5
GTGTATTTGGTGCGCACACACATGCAAAAAGAAATA [CACACA_site4768] | 9.52 ± 0.43
TGTATAATCATATATACACACACATATATATATATA [CACACA_site8674] | 9.71 ± 0.19
TTATATAAAAAAAAATGTACATATAATTGGTAAATT [XGTACX_site5180] | 8.69 ± 0.49
TATGTGATAACACGCACACAAATGTATTTAATTTAT [CACACA_site5435] | 9.12 ± 0.38
AAAAAATGAAAATATTCCAAAATAGAGGGAAATGTA [GTGCAC_negctrl_site572] | 8.73 ± 0.45
CACAAAAATGTAATCACACATATATATATATATATA [CACACA_site5818] | 9.88 ± 0.29
TTATATTTATATATTTGTACGTATGTATATAATTCA [XGTACX_site2993] | 8.65 ± 0.38
ATTCTAATAATATATACACACACATATATATTTATA [CACACA_site8629] | 9.14 ± 0.32
AAAATTAGGAGACATGCATGTAACGATAAATATAAC [TGCATGCA_site148] | 9.67 ± 0.64
CTTTTTTAAAATATTTAACACACAATTTTAATGCAT [CACACA_site9303] | 8.71 ± 0.41
TAATTTTTATTCAAGAGTACACAAAAGATAACTAAA [XGTACX_site4060] | 8.28 ± 0.47
TAAAAAAAATCATTCACACATATATGAAAAAAAAAA [CACACA_site5546] | 8.68 ± 0.55
TTCTTACACGTTTGCACACTAAAATATATATATATA [CACACA_site434] | 9.09 ± 0.38
TAGATACCTATAGAAACATGCAATTGAATATATTTC [TGCATGCA_site402] | 8.68 ± 0.46
GTTACATACATATACACACACATATATATATATATA [CACACA_site901] | 10.2 ± 0.17

Sequence | gcPBM binding intensity (ln)
TAAATAATTCTTTTAGTACACACGAATAAGCAGATA [CACACA_site305] | 8.76 ± 0.49
AGATATAAGAAAAGCACACACACACCCAAAAAAAAA [CACACA_site2826] | 10.2 ± 0.18
AAAATATATATTAACACACACACAAAAAAAAAAAAA [CACACA_site1325] | 9.74 ± 0.51
GAAAATTATATGTGTTGTACACTTGCAACAACTATT [XGTACX_site3637] | 8.85 ± 0.5
AATAAATATATGTACACACACAAATATATACATATC [CACACA_site1903] | 9.39 ± 0.29
TTTTATAATGTTGTAGTGCAAAATACGTATATTTAT [GTGCAC_site9826] | 8.65 ± 0.4
GGTGGCTAAATTACAACACACGACGGAATATTATAT [CACACA_site4114] | 9.14 ± 0.47
AATATATGGTTTCATTATATTAAATTCAATTTAATG [CACACA_negctrl_site675] | 8.44 ± 0.36
TTTTATTCATTGAGCACACAAAATAAATTATCAAAA [CACACA_site3279] | 8.44 ± 0.49
TGATTTATCTATATTTTATAAGTTATTTATTTTTTT [CACACA_negctrl_site1603] | 8.46 ± 0.4
AGTATATAATAATTTACACACAAAAAAATATCAGGA [CACACA_site3517] | 9.11 ± 0.5
ACCGTGGGAAGACACACACACACACCCACATATATA [CACACA_site333] | 10 ± 0.3
ATATAAATATTTATTAGTACACATTAGTGTAGTTTT [XGTACX_site4493] | 8.87 ± 0.42
CTATATTATTTTTCTTGTACGTAGGAAATATAGCTA [XGTACX_site6176] | 8.47 ± 0.4
TCTTGAAAAAGAATCAATCGGTCGACAAAAAAAAAA [CACACA_negctrl_site1099] | 8.88 ± 0.5
TTTTTTAATATTTATTAATTAAACTTTGTTTTTGTT [XGTACX_negctrl_site454] | 8.44 ± 0.7
ATATTCTTGTTTAATACACACTGTAGTATTATAGAT [CACACA_site6341] | 8.98 ± 0.32
GACAAATAATAAAAGGTGCATTATACTTAACAAAAA [GTGCAC_site9624] | 8.83 ± 0.48
AAAAAACACTTAAGGTGTACCTTTTAATATAAGTAT [XGTACX_site2397] | 8.73 ± 0.47
AAAAATGTATGTATGGTGCAGTATTCATATCATTTT [GTGCAC_site9458] | 8.81 ± 0.4
AAAATGAACAAACACACACACATATATATATATATA [CACACA_site2403] | 10.27 ± 0.057
TTATTGTGTAAGATGATTTTCTTCGTCACTTTGAAA [CACACA_negctrl_site1814] | 8.48 ± 0.51
